This note sets out measurements from paper doi:10.1101/2022.01.13.476208.

In this experiment the target is Wild-type GPIbα, residues 1-290, without Avi-tag. Briefly: ITC. The following applies: domain or fragment, chains chain.
Wild-type GPIbα, residues 1-290, without Avi-tag, sequence (P07359 17-306): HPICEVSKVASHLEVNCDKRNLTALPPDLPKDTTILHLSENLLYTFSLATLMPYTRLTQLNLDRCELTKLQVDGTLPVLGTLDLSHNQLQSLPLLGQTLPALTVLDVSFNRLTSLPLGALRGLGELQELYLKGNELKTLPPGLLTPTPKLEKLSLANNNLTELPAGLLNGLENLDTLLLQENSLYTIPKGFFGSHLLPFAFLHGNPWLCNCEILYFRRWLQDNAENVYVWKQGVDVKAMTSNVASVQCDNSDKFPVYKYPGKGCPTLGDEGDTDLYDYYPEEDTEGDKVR

Turning to “A1+OGly+C (a stretch of the chain, no sequence given)”, the Kd (O-glycosylated C-linker) turned out to be 1150 nM.
In the case of “A1 short (a stretch of the chain, no sequence given)”, the Kd was determined as 290 nM.
